Measured values from the supplement of paper PMC10338343.
± gives the standard deviation. The entries are a selection whose mix differs from that of the whole data set.

Tested on: MIWI (PIWIL1) piRISC loaded with L1MC piRNA (30 nt)
Assay: pre-steady-state target cleavage rate (min^-1); MIWI and MILI are mouse PIWI proteins and EfPiwi is from a freshwater sponge; tags in brackets are library labels; higher = faster piRNA-guided slicing of the target
Details: guide: L1MC piRNA 5'p-UAACUAAAUACUAUGCAAGCUGUAGGUCCU; auxiliary factor: 500 nM mouse GTSF1
Outline: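 In HEPES–potassium acetate buffer at 33 °C, […] transcribed, DNA-blocked target RNA library was mixed with 1 nM active affinity-purified piRISC carrying one synthetic guide, with or without 500 nM GTSF1 partner protein, for 0–8 or 0–960 min. Uncleaved targets were sequenced and normalised to depth and to weakly complementary targets; three trials were pooled and k3 was capped at 0.0001 min^-1. The pre-steady-state cleavage rate followed from a burst-and-steady-state fit.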
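Further: 1 nM active piRISC with 0.1 nM target library at 33 °C single turnover.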

Going from UCCUGGAUCAGCUUGCAUUGUAUUUAGAAA to UCGACCUACAGCUUGCAUAGAUUUUAGUUA, the “pre-steady-state target cleavage rate” value rises from 0.0646 ± 0.015 to 0.16 ± 0.019.

Compared with UCCUGCUACAGCUUGCAUAGUAUUGAGUUA, AGGACCUACAAGCUUGCAUAGUAUUUAGUUA is higher in “pre-steady-state target cleavage rate” value: 0.31 ± 0.046 for the first, 1.06 ± 0.048 for the second.

Compared with UGGACCGACAGCUUGCAUAGUAUUUAGUUA, UCCUGGUAUCAGCUUGCAUAGUAUUUAGUUA is lower in “pre-steady-state target cleavage rate” value: 1.45 ± 0.076 for the first, 0.546 ± 0.06 for the second.

Going from UGGACCUACUGCUAGCAUAGUAUUUAGUUA to UCGACCUACUGCUUGCAUAGUUUUUAGUUA, the “pre-steady-state target cleavage rate” value falls from 1.3 ± 0.075 to 0.394 ± 0.017.

Going from UCCUGGAACAGCUUGCAUAGUGAUUUAGUUA to UCCUGGAUGAGCUUGCCUAGUAUUUAGUUA, the “pre-steady-state target cleavage rate” value rises from 0.0361 ± 0.0085 to 0.797 ± 0.041.

Compared with UCCUGGAACAGCUAGCAUAGUAUUUAGUAA, UCCUGCUAGACCUUGCAUAGUAUUUAGUUA is lower in “pre-steady-state target cleavage rate” value: 0.639 ± 0.06 for the first, 0.453 ± 0.032 for the second.

Going from UCCUCCAACAGCUUCCAUAGUAUUUAGUUA to UCGACCUACAGCUUGGAUAGUAUAUAGUUA, the “pre-steady-state target cleavage rate” value rises from 0.0705 ± 0.019 to 0.853 ± 0.057.

Going from UCCUGGAUCAGCUAGCAUAGUAUUUAGAUA to UGGAGCUACAGCUUGGAUAGUAUUUAGUUA, the “pre-steady-state target cleavage rate” value rises from 0.226 ± 0.026 to 1.11 ± 0.083.

First: UCCACCUACUGCUUGCAUAGUAUUUAGUUA
Second: UCCUCGAACAGCUUGCAUAGUAUUUACAAA
The “pre-steady-state target cleavage rate” value of the first is higher: 0.697 ± 0.027 for the first, 0.356 ± 0.042 for the second.

Going from UCCUGGUACAGCUUGCAUAGUAAUUUGUUA to UGGACCUACAGCUUGCAAAGUAUUAAGUUA, the “pre-steady-state target cleavage rate” value rises from 0.349 ± 0.064 to 0.723 ± 0.052.

Compared with AGGACCUACAGCUUGCAUAGUAUUUAGUGA, UCGACCUACAGCUUGCAUAGUAUUUAGAUA is lower in “pre-steady-state target cleavage rate” value: 1.01 ± 0.085 for the first, 0.564 ± 0.043 for the second.

Going from UCCUGCUUCAGCUUGCAUAGUAUUUAGUAA to UCGACCUACAGCUUGCAUAGUAUUUACAUA, the “pre-steady-state target cleavage rate” value falls from 0.537 ± 0.036 to 0.283 ± 0.034.

UCCUGGAACAGGUUGCAUACUAUUUAGUUA and AGGACCUACAGCUUGCAUAGUAAUUUAGUUA are the same in “pre-steady-state target cleavage rate” value: 0.209 ± 0.024 for the first, 0.209 ± 0.024 for the second.

Going from UCCACCUACAGGUUGCAUAGUAUAUAGUUA to AGGACCUACAGCUUGCAAUGUAUUUAGUUA, the “pre-steady-state target cleavage rate” value falls from 0.787 ± 0.099 to 0.573 ± 0.043.

Compared with UGGAGCUACAGCUUGCAAAGUAUUUAGUUA, AGGACCUACAGCUUGCUUAGUAUUUACAAA is lower in “pre-steady-state target cleavage rate” value: 1.27 ± 0.062 for the first, 0.322 ± 0.046 for the second.

Compared with UCCUCCUACAGCUUGCAUAGCAUUUAGUUA, UCCUGGAUCAGCAUGCAUAGUAAUUAGUUA is lower in “pre-steady-state target cleavage rate” value: 0.393 ± 0.026 for the first, 0.253 ± 0.029 for the second.

First: UCCUCCUACAGCUUGCAUAGUUAUUUAGUUA
Second: UCCUCCAAGAGCUUGCAUAGUAUUUAGUUA
The “pre-steady-state target cleavage rate” value of the first is lower: 0.0773 ± 0.015 for the first, 1.02 ± 0.043 for the second.

Compared with AGGACCAUCAGCUUGCAUAGUAUUUUCAAA, UGGACCUACAGCUUGCAUAGUAUUUGGUUA is higher in “pre-steady-state target cleavage rate” value: 0.404 ± 0.054 for the first, 1.21 ± 0.054 for the second.

Compared with UCCUCCUACAGCUUGCAUAGUAUUUAGGUA, UCCUCCUACAGCUUGCAUAGUUAUUAGUAA is lower in “pre-steady-state target cleavage rate” value: 0.342 ± 0.074 for the first, 0.119 ± 0.02 for the second.

First: UCCUGGAUCUGCUUGCAUAGUAUUUAGUUA
Second: UCCACCUAGAGCUUGCAUAGUAUUUAGAAA
The “pre-steady-state target cleavage rate” value of the first is higher: 0.755 ± 0.036 for the first, 0.237 ± 0.04 for the second.

Same assay, conditions: guide: L1MC piRNA 5'p-UAACUAAAUACUAUGCAAGCUGUAGGUCCU; auxiliary factor: none (no GTSF1)

UCCUGGAUCAGCUUGCAUUGUAUUUAGAAA and UCGACCUACAGCUUGCAUAGAUUUUAGUUA are within error of each other in “pre-steady-state target cleavage rate” value: 0.00498 ± 0.0024 for the first, 0.00625 ± 0.0027 for the second.

Going from UCCUGCUACAGCUUGCAUAGUAUUGAGUUA to AGGACCUACAAGCUUGCAUAGUAUUUAGUUA, the “pre-steady-state target cleavage rate” value rises from 0.0253 ± 0.0049 to 0.0862 ± 0.018.

UGGACCGACAGCUUGCAUAGUAUUUAGUUA and UCCUGGUAUCAGCUUGCAUAGUAUUUAGUUA are within error of each other in “pre-steady-state target cleavage rate” value: 0.0713 ± 0.013 for the first, 0.062 ± 0.014 for the second.

UGGACCUACUGCUAGCAUAGUAUUUAGUUA and UCGACCUACUGCUUGCAUAGUUUUUAGUUA are within error of each other in “pre-steady-state target cleavage rate” value: 0.032 ± 0.0066 for the first, 0.0293 ± 0.0054 for the second.

First: UCCUGGAACAGCUUGCAUAGUGAUUUAGUUA
Second: UCCUGGAUGAGCUUGCCUAGUAUUUAGUUA
The “pre-steady-state target cleavage rate” value of the first is lower: 0.0077 ± 0.003 for the first, 0.0233 ± 0.0052 for the second.

UCCUGGAACAGCUAGCAUAGUAUUUAGUAA and UCCUGCUAGACCUUGCAUAGUAUUUAGUUA are within error of each other in “pre-steady-state target cleavage rate” value: 0.0137 ± 0.0038 for the first, 0.0177 ± 0.0029 for the second.

Compared with UCCUCCAACAGCUUCCAUAGUAUUUAGUUA, UCGACCUACAGCUUGGAUAGUAUAUAGUUA is higher in “pre-steady-state target cleavage rate” value: 0.00346 ± 0.0019 for the first, 0.0278 ± 0.0066 for the second.

Going from UCCUGGAUCAGCUAGCAUAGUAUUUAGAUA to UGGAGCUACAGCUUGGAUAGUAUUUAGUUA, the “pre-steady-state target cleavage rate” value rises from 0.00546 ± 0.0022 to 0.0533 ± 0.0083.

Compared with UCCACCUACUGCUUGCAUAGUAUUUAGUUA, UCCUCGAACAGCUUGCAUAGUAUUUACAAA is lower in “pre-steady-state target cleavage rate” value: 0.0467 ± 0.0067 for the first, 0.00537 ± 0.0025 for the second.

First: UCCUGGUACAGCUUGCAUAGUAAUUUGUUA
Second: UGGACCUACAGCUUGCAAAGUAUUAAGUUA
The “pre-steady-state target cleavage rate” value of the first is higher: 0.0176 ± 0.0044 for the first, 0.00967 ± 0.0035 for the second.

Compared with AGGACCUACAGCUUGCAUAGUAUUUAGUGA, UCGACCUACAGCUUGCAUAGUAUUUAGAUA is lower in “pre-steady-state target cleavage rate” value: 0.0934 ± 0.018 for the first, 0.0299 ± 0.0074 for the second.

UCCUGCUUCAGCUUGCAUAGUAUUUAGUAA and UCGACCUACAGCUUGCAUAGUAUUUACAUA are within error of each other in “pre-steady-state target cleavage rate” value: 0.0275 ± 0.0068 for the first, 0.0198 ± 0.0068 for the second.

UCCUGGAACAGGUUGCAUACUAUUUAGUUA and AGGACCUACAGCUUGCAUAGUAAUUUAGUUA are within error of each other in “pre-steady-state target cleavage rate” value: 0.0129 ± 0.0035 for the first, 0.0183 ± 0.0052 for the second.

Compared with UCCACCUACAGGUUGCAUAGUAUAUAGUUA, AGGACCUACAGCUUGCAAUGUAUUUAGUUA is lower in “pre-steady-state target cleavage rate” value: 0.0128 ± 0.0027 for the first, 0.00531 ± 0.0019 for the second.

Compared with UGGAGCUACAGCUUGCAAAGUAUUUAGUUA, AGGACCUACAGCUUGCUUAGUAUUUACAAA is lower in “pre-steady-state target cleavage rate” value: 0.0471 ± 0.0092 for the first, 0.00388 ± 0.0028 for the second.

Compared with UCCUCCUACAGCUUGCAUAGCAUUUAGUUA, UCCUGGAUCAGCAUGCAUAGUAAUUAGUUA is lower in “pre-steady-state target cleavage rate” value: 0.0272 ± 0.005 for the first, 0.00607 ± 0.0027 for the second.

Compared with UCCUCCUACAGCUUGCAUAGUUAUUUAGUUA, UCCUCCAAGAGCUUGCAUAGUAUUUAGUUA is higher in “pre-steady-state target cleavage rate” value: 0.00479 ± 0.0018 for the first, 0.0449 ± 0.0085 for the second.

Compared with AGGACCAUCAGCUUGCAUAGUAUUUUCAAA, UGGACCUACAGCUUGCAUAGUAUUUGGUUA is higher in “pre-steady-state target cleavage rate” value: 0.00578 ± 0.0024 for the first, 0.0534 ± 0.011 for the second.

UCCUCCUACAGCUUGCAUAGUAUUUAGGUA and UCCUCCUACAGCUUGCAUAGUUAUUAGUAA are within error of each other in “pre-steady-state target cleavage rate” value: 0.00586 ± 0.0028 for the first, 0.0033 ± 0.0018 for the second.

Compared with UCCUGGAUCUGCUUGCAUAGUAUUUAGUUA, UCCACCUAGAGCUUGCAUAGUAUUUAGAAA is lower in “pre-steady-state target cleavage rate” value: 0.0225 ± 0.0057 for the first, 0.00281 ± 0.0027 for the second.
